Activity change, negative = inhibition data for 30 molecules are collected here from PubChem BioAssay AID1745853 (National Center for Advancing Translational Sciences (NCATS), 2022).

Common to all, as to assay: Primary Screen for Target Class Profiling of Small Molecule Inhibitors of Methyltransferases
In assay [1] the target is Glycine N-methyltransferase (Homo sapiens) (UniProt Q14749). Conditions: purified enzyme, MTase-Glo SAH luminescence; measured here: GNMT inhibition; at 40 µM; stronger effect = lower value. In a few lines: (§1)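 Each enzyme was assayed with SAM and its substrate. SAH formation detected by MTase-Glo luminescence; single-point 40 uM screen[…].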
In assay [2] the target is Guanidinoacetate N-methyltransferase (Homo sapiens) (UniProt Q14353). The conditions noted are these: purified enzyme, MTase-Glo SAH luminescence; measured here: GAMT inhibition; at 40 µM; stronger effect = lower value. In a few lines: as §1
In assay [3] the target is Histamine N-methyltransferase (Homo sapiens) (UniProt P50135). Conditions: purified enzyme, MTase-Glo SAH luminescence; measured here: HNMT inhibition; at 40 µM; stronger effect = lower value. The method in brief:
as §1

For assay [4], the target named is Nicotinamide N-methyltransferase (Homo sapiens) (UniProt P40261). The conditions noted are these: purified enzyme, MTase-Glo SAH luminescence; measured here: NNMT inhibition; at 40 µM; stronger effect = lower value. In a few lines: as §1
The target in assay [5] is Phenylethanolamine N-methyltransferase (Homo sapiens) (UniProt P11086). The conditions noted are these: purified enzyme, MTase-Glo SAH luminescence; measured here: PNMT inhibition; at 40 µM; stronger effect = lower value. The method in brief: as §1

Structures are written as SMILES. The list shows a part of the results. These are further read-outs of the screen, such as a control signal, another cell line or another target. No call is given for them.
On the % scale 0 is the no-effect control and ±100 the full control effect.

As to `CCC(C)C(=O)Oc1cc(C)ccc1C1(COC(=O)C(C)C)CO1` (stereo not drawn), the activity change, negative = inhibition in assay [1] was -1.02%; in assay [2], -1.89%; in assay [3], 8.21%; in assay [4], -15.1%; in assay [5] it was -0.547%.
Taken in the same sequence, the figures for `COc1cccc(CNC(=O)Cn2ccc3cc(S(=O)(=O)N4CCCCC4)ccc32)c1` were 4.52%, 4.65%, -1.08%, -8.78% and -0.22%.
As for `CC(C)Cn1c(=O)c2ccc(C(=O)NC(C)C)cc2n2c(SCC(=O)c3ccccc3)nnc12`, the activity change, negative = inhibition in assay [1] was 0.233%; in assay [2] it was 0%; in assay [3] it was -1.76%; in assay [4] it was 0.544%; in assay [5] it was 1.31%.
For `CN(C)CCNC(=O)c1ccnc(-c2nnc3ccc(N(C)c4ccccc4)nn23)c1` the same measures were -7%, -7.48%, -55.3%, -15.3% and -7.34%.
For `CC1(C(=O)NC2CCCCCC2)Cn2nc(-c3cccs3)cc2C(=O)N1Cc1ccc(F)cc1` (stereo not drawn) the same measures were 5.77%, 0.906%, 9.07%, 3.46% and 3.14%.
Regarding `O=C(N[C@@H]1CCOC[C@H]1OCc1ccccn1)c1cccc(-n2cnnc2)c1`, the activity change, negative = inhibition in assay [1] is -2.01%; in assay [2], 0.571%; in assay [3], -0.498%; in assay [4] it was -0.308%; in assay [5], 5.28%.
Regarding `CCCCNc1ncc2c(-c3ccc(CN4CCN(C)CC4)cc3)cn(C3CCC(O)CC3)c2n1` (stereo not drawn), the activity change, negative = inhibition is -8.46% in assay [1]; 0.029% in assay [2]; -1.22% in assay [3]; -23.1% in assay [4]; -3.67% in assay [5].
Take `CNC12CC3C[C@@](C)(C1)C[C@](C)(C3)C2`: the activity change, negative = inhibition was -5.14% in assay [1]; -12.2% in assay [2]; -7.45% in assay [3]; -16.7% in assay [4]; -0.672% in assay [5].
As for `COC(=O)CNC(=O)c1cc(-c2ccc(Cl)cc2Cl)c2cnn(C)c2n1`, the activity change, negative = inhibition was -7.49% in assay [1]; -6.1% in assay [2]; -5.29% in assay [3]; -34% in assay [4]; -9.46% in assay [5].
Consider `O=C1CO[C@H]2CN(Cc3ncc[nH]3)C[C@H]2N1Cc1ccc(F)cc1`, for which the activity change, negative = inhibition is -5.47% in assay [1]; -5.81% in assay [2]; -3.65% in assay [3]; -6.08% in assay [4]; 9.81% in assay [5].
`COc1ccc(CNC(=O)c2cc3n(n2)CC(C)(C(=O)NCc2ccc(F)cc2)N(C)C3=O)cc1OC` (stereo not drawn): the activity change, negative = inhibition is -6.24% in assay [1]; -3.19% in assay [2]; -1.53% in assay [3]; -3.72% in assay [4]; -5.08% in assay [5].
Regarding `CCCn1c(=O)c2ccc(C(=O)NC(C)C)cc2n2c(SCc3cccc(C)c3)nnc12`, the activity change, negative = inhibition is 3.77% in assay [1]; 0.677% in assay [2]; 1.63% in assay [3]; -5.24% in assay [4]; -3.6% in assay [5].
For `COc1cc(NC(=O)Cn2nc3n(CCC(C)C)c(=O)c4ccccc4n3c2=O)cc(OC)c1` the same measures were 2.13%, 6.65%, 5.68%, -0.611% and 2.7%.
On to `O=C(CC1CCN(S(=O)(=O)c2ccc(F)cc2F)C1)NCc1ccccc1` (stereo not drawn), for which the activity change, negative = inhibition was -9.33% in assay [1]; -15.5% in assay [2]; -5.28% in assay [3]; -13.6% in assay [4]; -10.3% in assay [5].
With `CC(C)OCCCNC(=O)CCn1ccc2cc(S(=O)(=O)N3CCCCC3)ccc21`, the activity change, negative = inhibition in assay [1] was determined as 10.1%; in assay [2] it was 2.65%; in assay [3], 7.5%; in assay [4] it was 9.74%; in assay [5], 5.49%.
`CC(C)CCn1c(=O)c2ccccc2n2c(=O)n(CC(=O)Nc3ccccc3F)nc12`: the activity change, negative = inhibition in assay [1] is 0.604%; in assay [2] it was 4.66%; in assay [3], -1.6%; in assay [4] it was -3.96%; in assay [5], 4.6%.
With `CCCN1CCN(C(=O)c2cc3n(n2)CC(C)(C(=O)NC2CCCC2)N(C)C3=O)CC1` (stereo not drawn), the activity change, negative = inhibition was -3.59% in assay [1]; 4.73% in assay [2]; -3.15% in assay [3]; 1.44% in assay [4]; 0.666% in assay [5].
Take `c1ccc(CNc2nc(-c3ccccc3)no2)cc1`: the activity change, negative = inhibition in assay [1] was -7.53%; in assay [2] it was -8.32%; in assay [3], -5.17%; in assay [4], -10.2%; in assay [5] it was -5.98%.
Consider `CCOC(=O)c1cc2n(n1)CC(C)(C(=O)NC1CCC(C)CC1)N(c1ccccc1OC)C2=O` (stereo not drawn), for which the activity change, negative = inhibition in assay [1] is 1.03%; in assay [2] it was -1.23%; in assay [3], 4.38%; in assay [4], -2.25%; in assay [5], 0.537%.
With `CC(C)n1nc(Cc2cccc3ccccc23)c2c(N)ncnc21`, the figures for the activity change, negative = inhibition in assay [2], in assay [4] and in assay [5] were -10.5%, -44.6% and -55.3%, respectively.
For `O=C(NCc1ccc(F)cc1)c1ccc2c(=O)nc3c(-c4ccccc4)n[nH]n3c2c1`, the activity change, negative = inhibition in assay [1] is -7.69%; in assay [2], 1.59%; in assay [3], -2.09%; in assay [4] it was -4.34%; in assay [5] it was -0.27%.
For `C=C1C[C@]23C[C@H]1CC[C@H]2[C@@]12C=C[C@H](O)[C@@](C)(C(=O)O1)[C@H]2[C@@H]3C(=O)O` the same measures were 4.12%, 2.08%, 5.76%, -9.97% and 3.2%.
Consider `CC(C(=O)NCc1ccc(Cl)cc1)n1ccc2cc(S(=O)(=O)N3CCCCC3)ccc21` (stereo not drawn), for which the activity change, negative = inhibition was 4.56% in assay [1]; 0% in assay [2]; 7.64% in assay [3]; 2.36% in assay [4]; 3.66% in assay [5].
Regarding `CNC(=O)c1noc([C@@H]2CC(F)(F)CN2C(=O)CCOC)n1`, the activity change, negative = inhibition in assay [1] is 0.278%; in assay [2], 2.5%; in assay [3], 0.866%; in assay [4], -1.38%; in assay [5], -2.31%.
In the case of `C=C1C[C@@]2(O)O[C@@]3(C[C@H]2C(C)C)[C@@H](C)CC[C@@H]13`, the activity change, negative = inhibition is -0.649% in assay [1]; 6.18% in assay [2]; 11.5% in assay [3]; -9.5% in assay [4]; 3.1% in assay [5].
For the molecule `Cc1cc(C)c(-c2csc(NC(=O)c3ccccc3)n2)c(C)c1`, the activity change, negative = inhibition in assay [1] was 0.432%; in assay [2], -14.7%; in assay [3], 0.974%; in assay [4] it was -24.5%; in assay [5], -11.1%.
For `CCOc1ccccc1CN1C(=O)c2cc3ccc(OC)cc3n2CC1(C)C(=O)NC1CCCCC1` (stereo not drawn) the same measures were 0.632%, 4.76%, -1.57%, -1.84% and -3.23%.
On to `O=C(O)COCCN1CCN(C(c2ccccc2)c2ccc(Cl)cc2)CC1` (stereo not drawn), for which the activity change, negative = inhibition in assay [1] is -1.07%; in assay [2], 8.23%; in assay [3] it was 4.01%; in assay [4] it was -12.1%; in assay [5], 4.54%.
For the molecule `CCOC(=O)c1cc2n(n1)CC(C)(C(=O)NC1CCCCCC1)N(Cc1ccc(OCC)cc1)C2=O` (stereo not drawn), the activity change, negative = inhibition is -1.28% in assay [1]; 2.07% in assay [2]; -0.612% in assay [3]; -7.1% in assay [4]; -1.69% in assay [5].
Taken in the same sequence, the figures for `Cc1cccc(CNC(=O)C2CC(c3ccc(F)c(C)c3)CN(C(=O)c3ccccc3)C2)c1` (stereo not drawn) were -3.45%, 1.5%, -0.218%, -3.58% and -0.434%.
